The record followed here is paper PMC7380579.

The subject of data set [1] is PerR (PerR:Zn,Mn) (Streptococcus oligofermentans (AS 1.3089?)). Put plainly: EMSA. The conditions noted are these: 10 mM Tris-HCl pH 8.0, 50 mM NaCl, 5% glycerol, 10 ug/ml BSA, 2 ng/ul poly(dI-dC), 0.5 mM DTT, 1 mM MnCl2, Chelex-treated, 0.2 nM probe, 30 C, 30 min. Background: Mobility shift assays separate free from complexed probe on a gel.
Data set [2] deals with T1, PerR (PerR:Zn,Mn) (Streptococcus oligofermentans (AS 1.3089?)) (UniProt A0ABN4B511).
T1 sequence: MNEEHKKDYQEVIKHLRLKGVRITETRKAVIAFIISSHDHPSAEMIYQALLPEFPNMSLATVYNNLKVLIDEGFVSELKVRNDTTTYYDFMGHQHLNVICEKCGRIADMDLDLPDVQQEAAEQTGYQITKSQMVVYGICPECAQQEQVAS
Put plainly: EMSA. The conditions noted are these: 10 mM Tris-HCl pH 8.0, 50 mM NaCl, 5% glycerol, 10 ug/ml BSA, 2 ng/ul poly(dI-dC), 0.5 mM DTT, 1 mM MnCl2; Chelex-treated; 0.2 nM probe; 30 C, 30 min; 6% PAGE ….

In data set [1] (1 mM Mn2+, 6% PAGE o), dpr promoter displayed a Kd of 50 nM. Moreover, in data set [1] (PerR:Zn,Mn (50 nM) pretreated with 200 uM H2O2, 5 min (text: ~59% inactivated), 6% PAGE …), the binding signal (% of untreated complex) amounted to 41. Regarding “AATGACCAAGCCTAGAAATGAGGCTAAAATCGTTCCGACCAGAAAAAAGTATAGATGTATCATACTTATTTATTCGTGATTTTGAGCAGAAAAATTTTGAAATTTTACAACTTTTCTAATAAAGTAAAATTTTTAGTTTTAATACTTGACTTTCTTAATTAGAAGCATTATAATTAAAACATAATCAATAAAGATTAGAATGATTACAAATAAAAAGAGAGGTATCATT (double strand) [dpr promoter]”, in data set [2], the Kd turned out to be 50 nM and the binding entry was “binds”. As for “CATTTCAATCATTGTTACACCTCTTTTGTTTTAATATACATTAAAATGAAAATTAAGTCAAGTTAATTTTTGAAAAATCCTTGAAATCAATATAGGAAATATTTGAAAAAAGGAGCTAATTTTGATAAGGTTATATCAAAAGTATGAAAGTGAGAACAAGATGACACGTTTACAAGATGATTTTTATGATGCCATTAATGGTGAATGGGCCAAAACAGCGGTTATCCCAGAT (double strand) [mntABC promoter]”, the binding result in data set [2] is “no binding”.

As usually defined, the Kd is the equilibrium constant for the complex coming apart. A lower Kd goes with higher affinity.
